From PubChem BioAssay AID1508642 (National Center for Advancing Translational Sciences (NCATS), 2021)
Among all 43,000 compounds or so, about 200 (0.47%) were called active. Inconclusive results (about 12%) are left out. Calls follow the shape of the dose curve; as a rule, active = well fitted cell-killing curve with a large enough effect; inconclusive = small, poorly fitted or top-dose-only effect, or effect the other way; inactive = flat fitted curve, though single readings scatter. This is one part of the list.

test: Cell viability qHTS assay in S16 Pmp22-F2sN cells; settings: S16 Pmp22-F2sN Schwann cells viability, CellTiter-Glo, 24 h; series mostly up to 57.5 µM; activity change, negative = cytotoxicity: at the top concentration; also: nearly all actives have a fitted effect of over 65% in size
Method in brief: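 Used to flag compounds lowering reporter output through toxicity, this quantitative HTS measures ATP-based CellTiter-Glo luminescence in S16 Pmp22-F2sN Schwann cells after 24 h compound exposure at 37C.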
% is scaled to controls: 0 for no effect and ±100 for the full control effect.

Row | Structure (SMILES) | activity change, negative = cytotoxicity
1 | CCOc1ccc(OCC)c(Nc2nc3ccc(C(=O)c4ccccc4)cc3n3cnnc23)c1 | inactive: -0.108%
2 | O=C(Cn1cc(SCc2ccccc2F)c2ccccc21)N1CCCC1 | inactive: -1.44%
3 | Cc1ccc(NC(=O)c2ccc(N(Cc3ccccc3)S(C)(=O)=O)cc2)cc1 | inactive: -24.4%
4 | O=C(Nc1nc2c(s1)CCCC2)c1ccccc1F | inactive: -15%
5 | CC(C)c1ccc(C2=NC(c3ccncc3)=Nc3ccc(F)cc3N2)cc1 | inactive: -0.23%
6 | CCOC(=O)c1ccc(N2C(=O)c3n[nH]c(-c4cccs4)c3C2c2ccc(OC)cc2OC)cc1 (stereo unspecified) | inactive: -22.3%
7 | CCC1CCc2c(sc(NC(=O)C3c4ccccc4Oc4ccccc43)c2C(=O)OC)C1 (stereo unspecified) | inactive: -21.1%
8 | Cc1ccc(C(=O)c2oc3ccccc3c2NC(=O)C(C)Oc2ccccc2Cl)cc1 (stereo unspecified) | inactive: -1.46%
9 | CCOC(=O)N1CCC(NC(=O)c2ccc3c(c2)N(Cc2ccc(Cl)cc2)C(=O)c2ccccc2S3(=O)=O)CC1 | inactive: 11.6%
10 | CCOC(=O)c1c(S(=O)(=O)N2CCN(c3cccc(C(F)(F)F)c3)CC2)c(C)n(C)c1C | inactive: -20.3%
11 | CCOc1ccc(Cn2c(CNS(=O)(=O)c3ccc(CC)cc3)nc3cccnc32)cc1 | inactive: 0.0357%
12 | CCCn1cc(S(=O)(=O)c2ccc(CC)cc2)c(=O)c2cc(F)c(N3CCN(C)CC3)cc21 | inactive: -2.84%
13 | COc1ccc(OC)c(CCNC(=O)c2nn(C)c3c2CSc2ccccc2-3)c1 | inactive: -9.69%
14 | COc1ccc(N2Cc3cccc(C(=O)Nc4cccc(F)c4)c3C2=O)cc1 | inactive: 5.16%
15 | Cn1c(C(=O)N2CCC(C(=O)N3CCN(c4ccccc4)CC3)CC2)cc2sccc21 | inactive: -2.16%
16 | Cc1nnc(N2CCN(c3cccc(C(F)(F)F)c3)CC2)c2c1nnn2Cc1ccccc1 | inactive: 6.17%
17 | Cc1noc2ncnc(NCc3ccc(Cl)cc3)c12 | inactive: -15.4%
18 | Cc1ccc(-c2cc(NC(=O)C(C)Oc3ccccc3F)on2)cc1 (stereo unspecified) | inactive: -1.08%
19 | CN(C)c1ccc(C(=O)Nc2ccc(-c3nc4ccccc4o3)cc2)cc1 | inactive: -15.1%
20 | Cc1cc(NC(=O)C2CCCN(S(=O)(=O)c3cn(C)cn3)C2)ccc1Br (stereo unspecified) | inactive: 7.38%
21 | COc1ccc(N2CCN(c3oc(/C=C/c4ccccc4OC)nc3C#N)CC2)cc1 | inactive: 15.2%
22 | COc1ccc(NC(=O)C(=O)NCc2ccco2)c(OC)c1 | inactive: 1.5%
23 | CCOc1ccc(CC(=O)Nc2c(C(=O)c3ccc(F)cc3)oc3ccc(Cl)cc23)cc1OCC | inactive: -0.592%
24 | Cc1cc(C)cc(NC(=O)N2CCC(N3CCN(Cc4ccccc4)C(=O)C3=O)CC2)c1 | inactive: 1.68%
25 | O=C(Nc1ccc(C(=O)OCc2cc(=O)n3ccsc3n2)cc1)c1cccc(F)c1 | inactive: 4.03%
26 | COc1ccc(OC)c(CNC(=O)C2CCN(S(=O)(=O)c3ccc4[nH]c(=O)oc4c3)CC2)c1 | inactive: -3.81%
